# Source: the supplement of paper PMC3334620
# The full ranking holds about 33,000 sequences; the median of “E-score (-0.5 to 0.5)” is about -0.021, and the highest 2% start at about 0.32. The list shows a part of the results.
# Target: T1, Zap1 (UniProt P47043)
# T1 sequence: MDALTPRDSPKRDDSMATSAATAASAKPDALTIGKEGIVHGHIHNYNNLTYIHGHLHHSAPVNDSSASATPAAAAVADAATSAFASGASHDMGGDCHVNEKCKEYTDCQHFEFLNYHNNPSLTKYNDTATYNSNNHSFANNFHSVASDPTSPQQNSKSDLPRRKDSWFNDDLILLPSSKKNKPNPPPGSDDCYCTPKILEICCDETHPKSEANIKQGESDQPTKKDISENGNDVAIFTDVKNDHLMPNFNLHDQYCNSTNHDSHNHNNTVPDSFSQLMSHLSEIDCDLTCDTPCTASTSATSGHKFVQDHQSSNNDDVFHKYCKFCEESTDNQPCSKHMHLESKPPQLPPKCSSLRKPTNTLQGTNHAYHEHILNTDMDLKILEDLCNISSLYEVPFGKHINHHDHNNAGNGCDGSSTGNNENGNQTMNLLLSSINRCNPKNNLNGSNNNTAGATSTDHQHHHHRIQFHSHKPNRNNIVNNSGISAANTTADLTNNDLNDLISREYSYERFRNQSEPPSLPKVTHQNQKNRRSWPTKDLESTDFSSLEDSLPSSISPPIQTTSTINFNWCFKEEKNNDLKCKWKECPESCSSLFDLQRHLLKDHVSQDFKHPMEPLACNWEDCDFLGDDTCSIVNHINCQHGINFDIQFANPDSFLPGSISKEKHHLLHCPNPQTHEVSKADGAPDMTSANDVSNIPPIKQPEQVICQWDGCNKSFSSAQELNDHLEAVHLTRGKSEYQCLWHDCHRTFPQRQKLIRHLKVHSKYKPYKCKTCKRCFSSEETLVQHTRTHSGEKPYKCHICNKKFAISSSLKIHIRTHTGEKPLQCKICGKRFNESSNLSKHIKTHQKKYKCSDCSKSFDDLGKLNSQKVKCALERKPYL
# Experiment: PBM E-score (8-mer binding enrichment) (E-score (-0.5 to 0.5)); higher = stronger / more preferred TF binding; most listed sequences are background and not binding sites
# Conditions: protein concentration: 200 nM; construct: GST-full length
# Procedure: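 Universal 'all 10-mer' protein binding microarrays (Agilent AMADID 015681) probed with GST-tagged S. cerevisiae TFs (full-length or DBD) made by in vitro transcription/translation (PURExpress), about 100-200 nM. Bound TF was detected with fluorescent anti-GST. Each ungapped 8-mer (which stands for itself and its reverse complement) is scored by the PBM enrichment score (E-score), a modified Wilcoxon-Mann-Whitney statistic from -0.5 to +0.5, computed with the Universal PBM Analysis Suite. Scale: above 0.35 generally sequence-specific binding.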
row,Sequence,PBM E-score
1,TATGAACA,0.168
2,AAGACGCT,-0.191
3,ATTTAATA,0.21
4,AAATGGAA,0.0613
5,AAGAAGCA,-0.0504
6,GCGCTACC,0.134
7,TTATCAAA,0.2
8,CTAATCGC,-0.0671
9,CGAGAAAA,0.0682
10,CAGCCACC,-0.096
11,GTGAGGTA,0.169
12,CTCAGACC,-0.0198
13,AGTAATAT,0.178
14,CACAAAAG,0.215
15,CAGGGCTC,-0.25
16,CTGTCAGA,-0.0782
17,CCTCGACA,-0.0199
18,CTACAGTA,0.0671
19,TAAGATGA,-0.125
20,ATCCGTAG,-0.191
21,CTGCAATC,-0.0386
22,GACAATAC,0.162

row,Sequence,PBM E-score
1,AGTCCGAC,-0.121
2,AGAACGGA,0.032
3,ATGGAGAA,0.106
4,GGAAATAC,-0.0534
5,AGCGTTAC,0.0246
6,CCCCAGAC,-0.114
7,ACGCAACG,0.0875
8,ATATAGAC,-0.011
9,CACCGTAA,0.196
10,AGATGGAT,-0.254
11,AGTCGTTC,-0.148
12,CACCTCGA,0.215
13,ACTCAAAA,0.0364
14,CCTGCGCC,-0.187
15,CCCAGGTC,-0.13
16,ATTCTTAC,0.137
17,ATTAGAGG,0.0254
18,AAAACTCG,0.129
19,TCACTGAA,0.073
20,CATCTCTC,-0.0882
21,CGGGTCTA,0.0775
22,AGTAGTGG,0.142

row,Sequence,PBM E-score
1,ACTGACCC,0.109
2,AGGCGGGC,-0.347
3,ACATGTCA,-0.0569
4,AATTAGAA,0.0569
5,ATAAAGGC,-0.00446
6,ACCCGTAC,0.0183
7,AGAACTCA,0.0932
8,CCAAACCA,0.0629
9,GGCGCACC,-0.0307
10,AGACGTAT,-0.164
11,AGTGATCA,-0.0123
12,GTTATTAA,0.305
13,AACTGCAG,-0.0265
14,TAGGATCA,0.0416
15,AACGCGAG,-0.0126
16,AAACACTT,-0.0762
17,ATGTCAAA,-0.0366
18,GCTGCAGA,-0.163
19,GACACTTA,-0.177
20,GCCCCGGA,-0.0209
21,GCAACCCA,0.294
22,ACACGCAA,0.0714

row,Sequence,PBM E-score
1,AGTTTGAT,-0.0115
2,CAACCCCA,0.42
3,CAAAGTGA,0.0371
4,CAGACACC,-0.0467
5,GGCAACGA,-0.0667
6,CGAAGGGA,0.0197
7,ACGATACG,-0.0335
8,CGGTCTCC,-0.217
9,CCCGACCG,0.0188
10,CTAGTCCA,-0.0875
11,GAATCGGA,-0.0718
12,CACCGTGC,0.0803
13,CCGCGGAA,0.127
14,CCCGGACC,0.0712
15,AGCACCAC,-0.116
16,CTACGAAA,-0.1
17,CATAAAGA,0.116
18,TCAGTACA,0.141
19,GCCGTGCC,-0.168
20,CTCTGACA,0.0983
